For one molecule, EC50 and IC50 results are on record in patent US20210221908A1 (LAMKAP BIO BETA, published 2021).

Test [1] has as its target T1, human CEACAM5 on MKN-45 cells (human, UniProt P06731 35-685).
T1 construct: endogenous CEA of MKN-45 gastric adenocarcinoma cells, which also carry CD47 and CEACAM6; UniProtKB P06731; also called CD66e
T1 sequence: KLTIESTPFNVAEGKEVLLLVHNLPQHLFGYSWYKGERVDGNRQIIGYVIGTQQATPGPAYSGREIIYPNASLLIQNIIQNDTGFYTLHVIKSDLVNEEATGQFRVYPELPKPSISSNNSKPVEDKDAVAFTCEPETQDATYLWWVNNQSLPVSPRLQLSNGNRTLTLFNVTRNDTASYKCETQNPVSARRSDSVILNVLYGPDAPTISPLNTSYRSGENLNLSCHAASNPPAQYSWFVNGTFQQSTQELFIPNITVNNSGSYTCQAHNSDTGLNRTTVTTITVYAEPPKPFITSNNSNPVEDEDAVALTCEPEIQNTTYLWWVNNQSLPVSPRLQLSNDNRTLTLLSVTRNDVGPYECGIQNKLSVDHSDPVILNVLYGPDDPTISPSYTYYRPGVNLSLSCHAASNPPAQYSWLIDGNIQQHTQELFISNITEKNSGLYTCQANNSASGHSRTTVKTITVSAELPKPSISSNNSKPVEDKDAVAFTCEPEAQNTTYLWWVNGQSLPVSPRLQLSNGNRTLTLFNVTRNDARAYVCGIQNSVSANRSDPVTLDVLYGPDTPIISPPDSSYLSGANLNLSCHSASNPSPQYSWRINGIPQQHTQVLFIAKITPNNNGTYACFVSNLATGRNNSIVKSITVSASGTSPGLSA
As to the kind of experiment: flow cytometry on MKN45 CEA+ cancer cells (also carry CD47). How it is done:
Cells are harvested, counted, checked for viability and resuspended at 3×10⁶ cells/ml in FACS buffer (PBS 2% BSA, 0.1% NaN3). 100 μl of the cell suspension are distributed in V-bottom 96-well plates (3×10⁵ cells/well). The supernatant is removed by centrifugation 3 minutes at 4° C., 1300 rpm. Increasing concentrations of the antibody according to the invention are then added into the wells and incubated for 15 minutes at 4° C. Cells are washed twice with cold FACS buffer and re-incubated for further 15 minutes at 4° C. with the PE (R-phycoerythrin)-conjugated mouse anti-human IgG Fc secondary antibody (SouthernBiotech, pre-diluted 1:100 in FACS buffer). Cells are washed twice with cold FACS buffer and resuspended in 300 μl FACS buffer with 1:15000-diluted SytoxBlue (Life Technologies). Fluorescence is measured using a Cytoflex […]. Binding curves and EC50 values are obtained and calculated using GraphPad Prism? software. In the same manner binding of MAB CEA or MAB CEA1 to MKN-45 cells can be tested.

In test [2] the target is T2, human CD47 on MKN45 cells (human, UniProt Q08722).
T2 construct: whole, on cells; also called IAP
Description: inhibition of SIRPα-mouseFc binding to CD47 on MKN45 cells, imaging (CX5); column 'SIRPα inhibition potency'. The source says: Experimental set-up for the measurement of the SIRPα inhibition potency data shown for bispecific antibodies of this invention (results see table 2):
The detection of bound SIRPα cell-based assay monitoring the interaction of soluble SIRPα with human CD47 expressed at the surface of MKN45 is used for the detection of the blocking activity. Dose-response experiments with bispecific antibodies according to the invention allow determination of an IC50 value.
MKN45 cancer cells, expressing both CD47 and CEACAM5, are stained with CFSE violet to allow the imaging system (CX5) to detect the cells. Briefly, 3,000 stained MKN45 cells per well are seeded in a 384 optical well plate (Costar) and incubated for 50 minutes with increased concentrations of bispecific antibodies of the invention (1.9 pM to 333 nM, in quadruplicates). Then, a fixe concentration of SIRPα—mouseFc premixed with anti-mouse IgG-Fc AF647 coupled antibody (Jackson Immunoresearch diluted 1:2000) is added at 50 ng/mL final. After an incubation of 3H30 plates are acquired with the imaging system (CX5, Thermofisher) and fluorescence signals emitted by the detected bound SIRPα is recorded by the software dedicated to the imaging system. Fluorescence signals are plotted according to the dose range tested and IC50 are calculated by the software (Prism, Graphpad).

B1: K2AC23 CEAxCD47 bispecific antibody (bispecific antibody, human IgG1, kappa, lambda)
heavy: [about 120 residues not given here][about 100 residues not given here][human IgG1 Fc not given here]
light 1: DIQMTQSPSSLSASVGDRVTITCRASQSISSYLNWYQQKPGKAPKLLIYAASSLQSGVPSRFSGSGSGTDFTLTISSLQPEDFATYYCQQMHPRAPKTFGQGTKVEIKRTVAAPSVFIFPPSDEQLKSGTASVVCLLNNFYPREAKVQWKVDNALQSGNSQESVTEQDSKDSTYSLSSTLTLSKADYEKHKVYACEVTHQGLSSPVTKSFNRGEC
light 2: QSVLTQPPSASGTPGQRVTISCSGSSSNIGYGLVNWYQQLPGTAPKLLIYATNTRPSGVPDRFSGSKSGTSASLAISGLQSEDEADYYCAAWDFSYKVVFGGGTKLTVLGQPKAAPSVTLFPPSSEELQANKATLVCLISDFYPGAVTVAWKADSSPVKAGVETTTPSKQSNNKYAASSYLSLTPEQWKSHRSYSCQVTHEGSTVEKTVAPTECS
notes: kappa-lambda body, human IgG1, common heavy chain; CEA arm light chain 1A8 (AC23)
The term EC50 denotes the concentration that produces a half-maximal response. Higher therefore signals a less potent agent. Usually IC50 stands for the point on the concentration scale where inhibition reaches its midpoint. Read a high IC50 as lower potency. Take B1: in test [1], the EC50 came to 76.8 nM. In test [2], this molecule had an IC50 of 1.6 nM.
